Lines with a small IC50 respond at low doses; a limit (>, <) means that the fit lies beyond the doses tested. The AUC spans the tested range (256-fold, ending at the top dose) of the same fit; it is 1 without any effect and falls as sensitivity rises. For some of these results: The top dose, if marked as inferred, comes from the curve model; the source does not state it.
What was measured:
Test in all cases: Viability of human cancer cell lines after 72 h of drug (GDSC screen)
[1] = compound: CCNC(=O)C[C@@H]1N=C(c2ccc(Cl)cc2)c2cc(OC)ccc2-n2c(C)nnc21 [I-BET-762]; conditions: top dose 20 µM; top dose inferred
Protocol: (§1)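 Human cancer cell lines in 384-well plates, medium with 10% serum, drug for 72 h over a 256-fold dose range (nine 2-fold or five 4-fold steps up to the top dose). Adherent lines were fixed and stained with the nucleic acid dye Syto60, suspension lines read with resazurin; signal relative to control wells, capped at 0 and 100%. One two-parameter sigmoid per drug and line, fitted in a mixed model over all curves with the slope shared within a line.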

[2] = compound: CCc1cncnc1N1CCN(Cc2nc3ccc(C(F)(F)F)cc3[nH]2)CC1 [PF-4708671]; conditions: top dose 10 µM; top dose inferred
Protocol: as §1

[3] = compound: COc1cc2nccc(Oc3ccc(NC(=O)Nc4cc(C)on4)c(Cl)c3)c2cc1OC [AV-951]; conditions: top dose 0.128 µM; top dose inferred
Protocol: as §1

[4] = compound: O=C(NC(COc1ccc2[nH]c(=O)[nH]c2c1)c1ccccc1)c1cccn(Cc2ccc(F)c(F)c2)c1=O [KIN001-244]; conditions: top dose 20 µM; top dose inferred
Protocol: as §1

[5] = compound: CC(=O)Nc1cccc(-n2c(=O)n(C3CC3)c(=O)c3c(Nc4ccc(I)cc4F)n(C)c(=O)c(C)c32)c1 [Trametinib]; conditions: top dose 1 µM
Protocol: as §1

[6] = compound: CCN1CCN(Cc2ccc(NC(=O)c3ccc(C)c(/C=C/c4cnc5[nH]ccc5c4OC)c3)cc2C(F)(F)F)CC1 [HG-6-64-1]; conditions: top dose 5.12 µM; top dose inferred
Protocol: as §1

Cell Line | AUC [1] | IC50 [1] [µM] | AUC [2] | IC50 [2] [µM] | AUC [3] | IC50 [3] [nM] | AUC [4] | IC50 [4] [µM] | AUC [5] | IC50 [5] [nM] | AUC [6] | IC50 [6] [nM]
OC-314 (ovary, adherent) | 0.929 | > 20 | 0.946 | > 10 | 0.983 | > 128 | 0.884 | 16.3 | 0.806 | 425 | – | –
OV-7 (ovary, adherent) | 0.931 | > 20 | 0.916 | > 10 | 0.972 | > 128 | 0.8 | 16.3 | 0.543 | 86.8 | – | –
OV-17R (ovary, adherent) | 0.715 | 6.55 | 0.975 | > 10 | 0.978 | > 128 | 0.729 | 7.41 | 0.76 | 491 | – | –
OV-56 (ovary, adherent) | 0.849 | 14.1 | 0.985 | > 10 | 0.989 | > 128 | 0.915 | > 20 | 0.744 | 301 | – | –
OVCA420 (ovary, adherent) | 0.816 | 16.1 | 0.943 | > 10 | 0.979 | > 128 | 0.849 | > 20 | 0.304 | 14.5 | – | –
OVCA433 (ovary, adherent) | 0.931 | > 20 | 0.971 | > 10 | 0.969 | > 128 | 0.876 | > 20 | 0.328 | 19.5 | – | –
OVK-18 (ovary, adherent) | 0.982 | > 20 | 0.906 | > 10 | 0.986 | > 128 | 0.892 | > 20 | 0.873 | > 1000 | – | –
PEO1 (ovary, adherent) | 0.838 | 14.4 | 0.987 | > 10 | 0.986 | > 128 | 0.824 | 12.5 | 0.583 | 107 | – | –
RCC-AB (kidney, adherent) | 0.832 | 18.5 | 0.98 | > 10 | 0.972 | > 128 | 0.837 | 19.6 | 0.766 | 483 | – | –
RCC-ER (kidney, adherent) | 0.977 | > 20 | 0.957 | > 10 | 0.985 | > 128 | 0.953 | > 20 | 0.891 | > 1000 | – | –
RCC-FG2 (kidney, adherent) | 0.971 | > 20 | 0.949 | > 10 | 0.978 | > 128 | 0.922 | > 20 | 0.693 | 255 | – | –
RCC-JF (kidney, adherent) | 0.913 | > 20 | 0.968 | > 10 | 0.982 | > 128 | 0.888 | > 20 | 0.498 | 61.7 | – | –
RCC-JW (kidney, adherent) | 0.967 | > 20 | 0.976 | > 10 | 0.985 | > 128 | 0.896 | > 20 | 0.813 | 558 | – | –
RCC-MF (kidney, adherent) | 0.907 | > 20 | 0.891 | > 10 | 0.974 | > 128 | 0.723 | 6.61 | 0.637 | 168 | – | –
SCC90 (head and neck, adherent) | – | – | – | – | – | – | – | – | 0.418 | 33.9 | 0.8 | 3810
SK-GT-4 (oesophagus, adherent) | 0.826 | 16.3 | 0.947 | > 10 | 0.975 | > 128 | 0.877 | > 20 | 0.381 | 27 | – | –
SK-MG-1 (glioma, adherent) | 0.958 | > 20 | 0.986 | > 10 | 0.98 | > 128 | 0.852 | 15.7 | 0.879 | > 1000 | – | –
SNU-61 (large intestine, adherent) | 0.788 | 12 | 0.911 | > 10 | 0.953 | > 128 | 0.887 | > 20 | 0.734 | 367 | – | –
SNU-81 (large intestine, adherent) | 0.974 | > 20 | 0.96 | > 10 | 0.973 | > 128 | 0.872 | > 20 | 0.772 | 522 | – | –
SNU-407 (large intestine, adherent) | 0.674 | 4.17 | 0.951 | > 10 | 0.978 | > 128 | 0.665 | 3.9 | 0.324 | 18.4 | – | –
SNU-1040 (large intestine, adherent) | 0.839 | > 20 | – | – | 0.978 | > 128 | 0.781 | 11.4 | 0.884 | > 1000 | – | –
SNU-C5 (large intestine, adherent) | 0.952 | > 20 | 0.986 | > 10 | 0.971 | > 128 | 0.952 | > 20 | 0.613 | 132 | – | –
STS-0421 (soft tissue, adherent) | – | – | – | – | – | – | – | – | 0.646 | 171 | 0.645 | 866
SW1116 (large intestine, adherent) | 0.981 | > 20 | 0.944 | > 10 | 0.98 | > 128 | 0.985 | > 20 | 0.508 | 66.2 | – | –
TE-4 (oesophagus, adherent) | 0.97 | > 20 | 0.974 | > 10 | 0.986 | > 128 | 0.977 | > 20 | 0.461 | 48.8 | – | –
UWB1.289 (ovary, adherent) | 0.935 | > 20 | 0.972 | > 10 | 0.977 | > 128 | 0.851 | > 20 | 0.765 | 556 | – | –
YH-13 (glioma, adherent) | 0.895 | > 20 | 0.947 | > 10 | 0.963 | > 128 | 0.881 | > 20 | 0.71 | 254 | – | –

Reference: the supplement of paper PMC4967469
